# The campaign covered roughly 420,000 compounds. About 50,000 (12%) were called active. Inconclusive results, whose numbers are uncertain, are shown with a selection of clear calls. Calls come from the whole dose curve; as a rule, active = well fitted inhibition curve with a large enough effect; inconclusive = small, poorly fitted or top-dose-only effect; inactive = flat fitted curve, though single readings scatter. Potencies of inconclusive entries are left out as doubtful fits.
# Experiment: qHTS for Inhibitors of human tyrosyl-DNA phosphodiesterase 1 (TDP1): qHTS in cells in presence of CPT; note: nearly all actives have a fitted effect of over 55% in size
# Conditions: chicken DT40 Tdp1-/-;hTDP1 cells + 20 nM CPT, ATP luminescence, 48 h; activity change, negative = growth inhibition: at 46.2 µM (top of the series)
# Method in brief: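 Cell growth measured by CellTiter-Glo luminescence after a minimum 48 h, 37 C compound exposure with 20 nM CPT in Tdp1-knockout DT40 cells stably expressing hTDP1, seeded 400/well; qHTS titration format.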
# % is set by controls: 0 for no effect and ±100 for the full control effect; potency is the fitted concentration of half-maximal effect; tags give direction and shape of the fitted curve.
SMILES,Potency,"activity change, negative = growth inhibition"
CC(=O)Nc1nc(NC(=O)/C=C/c2ccccc2)n(-c2ccccc2)n1,active: 11.6 µM,–
Cc1ccc(S(=O)(=O)Nc2ccccc2N=Cc2ccc([N+](=O)[O-])cc2[N+](=O)[O-])cc1,active: 25.9 µM,–
Cc1cc(C)cc(NC(=S)N(CCN2CCCCC2)Cc2ccco2)c1,"inconclusive [inhibitor, single point]",–
COC(=O)C[C@H]1C[C@H]2c3cc(NC(=O)C4CCOCC4)ccc3O[C@H]2[C@@H](CO)O1,–,inactive: -1.64%
Cc1ccccc1NC(=O)Nc1c(C)n(C)n(-c2ccccc2)c1=O,–,inactive: 12.8%
O=C(NCc1ccc(F)cc1)c1cc(C2CCCCN2S(=O)(=O)Cc2ccccc2)on1 (configuration not stated),"inconclusive [inhibitor, single point]",–
Cn1c(-c2ccc(F)c(F)c2)cc2onc(-c3ccccc3)c2c1=O,active: 16.4 µM,–
CC(NC(=S)Nc1ccccc1Cl)C(c1ccccc1)N1CCOCC1 (configuration not stated),"inconclusive [inhibitor, single point]",–
COC(=O)C1(C(C[N+](=O)[O-])c2ccc(C)cc2)C(=O)NCC1c1ccco1 (configuration not stated),"inconclusive [inhibitor, single point]",–
Cc1ccsc1C(=O)OCc1cc(=O)n2ccsc2n1,–,inconclusive: -30.7% [inhibitor]
COc1ccc(-c2nc3ccccc3s2)cc1NC(=O)c1cccc(F)c1,–,inconclusive: -33.9% [inhibitor]
Cc1ccc(-n2nc(C)c3c(C)c(CCC(=O)NCc4ccc(Cl)cc4)c(C)nc32)cc1,"inconclusive [inhibitor, single point]",–
CCCOc1ccc(CN2C(=O)C(=O)c3cccc(C)c32)cc1,active: 1.3 µM,–
Cc1ccc(S(=O)(=O)NCCN=Cc2ccc(N(C)C)cc2)cc1,–,inactive: 3.88%
COc1cccc(C2=CC(=O)CC(C)(C)C2=O)c1,–,inactive: -6.87%
COc1ccc(S(=O)(=O)N2CCOCC2)cc1NC(=O)COC(=O)CCS(=O)(=O)c1ccc(C)cc1,"inconclusive [inhibitor, partial curve]",–
CCc1cccc(C)c1Nc1c(-c2ccc(N(C)C)cc2)nc2cnccn12,"inconclusive [inhibitor, single point]",–
COc1ccc(CC(=O)Nc2ccc(-c3ccc4nnc(C)n4n3)cc2)cc1OC,"inconclusive [inhibitor, single point]",–
N/C(=N\OC(=O)c1ccc(=O)n(Cc2ccc(Cl)cc2)c1)c1ccccn1,active: 20.6 µM,–
COc1cc(-c2nc3ccccc3s2)ccc1O,–,inactive: -11.4%
COc1ccccc1CCNC(=O)c1cccc(NC(=O)CC2SC(N3CCCCC3)=NC2=O)c1 (configuration not stated),"inconclusive [inhibitor, single point]",–
COc1cccc(NC(=O)N2CCC(NC(=O)c3ccco3)CC2)c1,–,inactive: 2.29%
CC(C)c1ccc(CN(C)C(=O)c2ccc(S(=O)(=O)NCc3ccco3)cc2)cc1,active: 20.6 µM,–
Oc1ccc(-c2nc3c4c(ncn3n2)-c2ccccc2CC42CCCC2)cc1,active: 14.6 µM,–

SMILES,Potency,"activity change, negative = growth inhibition"
CC1CC(C)CN(C(=O)C(Cc2ccccc2)n2cccc2)C1 (configuration not stated),"inconclusive [inhibitor, single point]",–
CC1CCN(C(=O)c2cc(-c3ccc(Cl)c(Cl)c3)on2)CC1,"inconclusive [inhibitor, single point]",–
COc1ccc(CNC(=O)C2(CC3CC(c4ccccc4)=NO3)CCN(C(=O)C3(C)CC3)CC2)cc1 (configuration not stated),"inconclusive [inhibitor, single point]",–
COCCNC(=O)C1CCCN(C(=O)c2ccnc(Cl)c2)CC1 (configuration not stated),–,inactive: -10.5%
CCSC1=N/C(=C\c2ccccc2)C(=O)N1c1ccc(OC)cc1,"inconclusive [inhibitor, single point]",–
O=C(CSc1nc2ccccc2c(=O)n1-c1ccccc1)N1CCc2ccccc21,–,inconclusive: -18.2% [inhibitor]
COC(=O)c1ccccc1NC(=O)Cn1c(=O)n(-c2ccc(C)cc2)c(=O)c2ccccc21,active: 0.82 µM,–
Cc1cc2nc(-c3cccc(Cl)c3)c(Cc3ccsc3)n2c(C)c1Br,"inconclusive [inhibitor, single point]",–
CC1(C)CC(CC(=O)Nc2nccs2)(c2ccccc2)CCO1 (configuration not stated),–,inactive: -25.9%
COC(=O)c1ccc(COC(=O)c2ccc(C)c(S(=O)(=O)N3CCCCC3)c2)cc1,active: 29.1 µM,–
Cc1cccc(OC(C)C(=O)N2CCN(Cc3ccc4c(c3)OCO4)CC2)c1 (configuration not stated),"inconclusive [inhibitor, single point]",–
C=CCSc1nnc(-c2cc3c(-c4ccccc4)nn(C)c3s2)n1C,"inconclusive [inhibitor, partial curve, poor fit]",–
Cc1ccc(S(=O)(=O)N(C)c2nc3ccccc3[nH]c2=S)cc1,"inconclusive [inhibitor, single point]",–
CC(=O)Nc1c(O)cc(Br)c2nonc12,–,inactive: 2.52%
COc1ccccc1-n1ccnc(SCC(=O)NC2CCCCC2)c1=O,–,inactive: -22.8%
CN1CCC(NCCC(c2ccc(F)cc2)c2ccc(Cl)cc2)CC1 (configuration not stated),active: 5.8 µM,–
O=C(CCN=C1NS(=O)(=O)c2ccccc21)OCc1ccccc1,–,inactive: -3.44%
Cc1ccc(NC(=O)CSc2nc3nccnc3c(=O)n2CCc2c[nH]c3ccccc23)cc1C,active: 13 µM,–
Cc1cc(C)c(OCC(=O)OCC(=O)NC2CCC(C)CC2)c(C)c1 (configuration not stated),–,inactive: -1.56%
CCCC1CC(=O)NC1(C(=O)OCC)C(=O)OCC (configuration not stated),–,inactive: 7.79%
CCN(CC(O)COc1ccc(OCC(O)CN(CC)C2CCCCC2)cc1)C1CCCCC1 (configuration not stated),"inconclusive [inhibitor, single point]",–
CC(=O)c1ccc(S(=O)(=O)N(C)CC(=O)Nc2cccc(S(=O)(=O)N3CCCC3)c2)cc1,"inconclusive [inhibitor, single point]",–
COc1ccc(CCn2c(=N)c(C(=O)NCc3ccco3)cc3c(=O)n4ccccc4nc32)cc1,"inconclusive [inhibitor, single point]",–
